Measurements reported in PubChem BioAssay AID588342 (National Center for Advancing Translational Sciences (NCATS), 2011).
The whole screen tested about 360,000 compounds, of which about 25,000 (6.9%) were called active. Inconclusive results, whose numbers are uncertain, are shown with a selection of clear calls. The call rests on the fitted dose curve; in most records, active means well fitted inhibition curve with a large enough effect; inconclusive means small, poorly fitted or top-dose-only effect; inactive means flat fitted curve, though single readings scatter. Potencies of inconclusive entries are doubtful fits and often do not repeat.
Further: nearly all actives have a fitted effect of over 55% in size.
Potency means the concentration at half of the fitted maximal effect; tags describe the fitted curve by direction and shape.

What follows are molecules tested against Luciferin 4-monooxygenase (Photinus pyralis) (UniProt P08659) (assay: qHTS profiling assay for firefly luciferase inhibitor/activator using purifed enzyme and Km concentrations of substrates (counterscreen for miR-21 project)). Conditions: purified FLuc, luminescence inhibition; series mostly up to 57.5 µM.
Sequence of UniProt P08659 (P08659 whole entry, looked up): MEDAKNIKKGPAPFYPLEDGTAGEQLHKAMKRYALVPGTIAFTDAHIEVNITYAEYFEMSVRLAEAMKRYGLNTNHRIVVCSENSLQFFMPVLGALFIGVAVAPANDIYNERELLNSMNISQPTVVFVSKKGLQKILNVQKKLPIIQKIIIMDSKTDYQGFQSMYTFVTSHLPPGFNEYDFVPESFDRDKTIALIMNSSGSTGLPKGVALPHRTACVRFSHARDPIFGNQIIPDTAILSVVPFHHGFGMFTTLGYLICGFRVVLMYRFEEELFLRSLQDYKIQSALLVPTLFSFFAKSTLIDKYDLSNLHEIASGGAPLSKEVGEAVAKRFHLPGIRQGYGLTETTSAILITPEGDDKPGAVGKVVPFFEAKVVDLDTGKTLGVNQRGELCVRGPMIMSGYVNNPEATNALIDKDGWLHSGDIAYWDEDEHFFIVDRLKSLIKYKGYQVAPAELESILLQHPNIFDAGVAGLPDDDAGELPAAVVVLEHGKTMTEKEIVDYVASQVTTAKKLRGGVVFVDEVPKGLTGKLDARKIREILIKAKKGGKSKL
Method in brief: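 Purified P. pyralis luciferase, 10 nM final, with Km-level 10 uM D-luciferin and 10 uM ATP in 50 mM Tris acetate pH 7.5, 10 mM Mg acetate, 0.01% Tween-20, 0.05% BSA; 6-point qHTS titration about 60 µM downward; luminescence read.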
With `COc1ccc(Cl)cc1NC(=O)C(C)OC(=O)c1ccc(NS(=O)(=O)c2ccc3[nH]c(=O)[nH]c3c2)cc1` (stereo not given) the Potency was “inactive”.
`CCOc1ccc(NC(=O)c2c(NCc3ccc(C)o3)sc3c2CCCCC3)cc1` was tested, and the Potency was inconclusive: 23.9 µM [inhibitor, partial curve].
In the case of `CCCCn1c(SCC(=O)N2CCCC2)nc2cc(S(N)(=O)=O)ccc21`, the Potency is reported as “inactive”.
`Cc1ccc(CNC(=O)CN2C(=O)CSc3ccc(S(=O)(=O)N(C)C)cc32)cc1` was tested, and the Potency was inconclusive: 30.1 µM [inhibitor, partial curve, poor fit].
For `CNC(=O)c1ccc(-c2ccccc2)s1`, the Potency was active: 13.5 µM.
With `N#Cc1ccc(C(=O)Nc2nnc(-c3ccco3)o2)cc1` the Potency was inconclusive: 30.1 µM [inhibitor, partial curve, poor fit].
In the case of `O=C(NNc1nc2cc3c(cc2s1)OCCO3)c1ccc(F)cc1`, the Potency is reported as inconclusive: 21.3 µM [inhibitor, partial curve].
For `O=C(Nc1ccccc1C(=O)O)c1cccc(NC(=O)c2ccccc2Cl)c1`, the Potency was active: 19 µM.
For `CNC(=O)c1ccccc1Nc1ccc(SC(F)F)cc1`, the Potency was inconclusive: 19 µM [inhibitor, partial curve, poor fit].
In the case of `Cc1ccc(NC(=O)c2oc3ccccc3c2C)nc1`, the Potency is reported as active: 12 µM.
With `COc1ccc(/C=N/NC(=O)c2[nH]c(C)c(C(=O)N/N=C/c3ccc(OC)cc3)c2C)cc1` the Potency was inconclusive: 10.7 µM [inhibitor, partial curve, poor fit].
`COc1ccc(NC(=O)c2c(NCc3cccs3)sc3c2CCCC3)c(OC)c1` was tested, and the Potency was inconclusive: 30.1 µM [inhibitor, partial curve, poor fit].
For `COc1cccc(C(=O)NC(=S)Nc2cccnc2)c1`, the Potency was inconclusive: 19 µM [inhibitor, partial curve].
`CCCSc1nc2cc(C)c(C)cc2n1CC(C)O` (stereo not given) was tested, and the Potency was inconclusive: 21.3 µM [inhibitor, single point].
`CCCOc1ccc(CNC(=O)c2ccc3c(c2)N(Cc2ccccc2)CCS3)cc1` was tested, and the Potency was “inactive”.
With `Cc1ccc(C(=O)Nc2cccc(N(C)S(C)(=O)=O)c2)cc1S(=O)(=O)Nc1ccccc1` the Potency was “inactive”.
With `O=C(NC1CCCCCC1)c1cccs1` the Potency was inconclusive: 33.8 µM [inhibitor, partial curve, poor fit].
In the case of `Cc1ccc(N=Nc2ccc(O)c(/C=N\NC(=O)c3ccc(N)cc3)c2)cc1C`, the Potency is reported as inconclusive: 21.3 µM [inhibitor, partial curve, poor fit].
`COCCn1c(C)cc(C(=O)COC(=O)c2c(C)nn(Cc3ccccc3)c2C)c1C` was tested, and the Potency was inconclusive: 23.9 µM [inhibitor, partial curve].
`CCc1ccc2nc(NC(=O)c3ccc4c(=O)[nH]c(CN5CCOCC5)nc4c3)sc2c1` was tested, and the Potency was inconclusive: 6.75 µM [inhibitor, partial curve].
With `Cc1ccc(NC(=O)c2cc(N3C(=O)C=CC3=O)ccc2N2CCOCC2)cc1` the Potency was inconclusive: 8.49 µM [inhibitor, partial curve].
In the case of `COc1ccccc1-c1noc(-c2ccc(N3CCN(C)CC3)c([N+](=O)[O-])c2)n1`, the Potency is reported as inconclusive: 16.9 µM [inhibitor, partial curve].
In the case of `O=c1[nH][nH]cc1C=Nc1ccc(Cl)cc1Cl`, the Potency is reported as active: 7.57 µM.
`COC(=O)c1nn(-c2ccc3c(c2)OCO3)cc1O` was tested, and the Potency was active: 10.7 µM.
In the case of `COc1ccc2[nH]c(C(=O)Nc3ccccc3Cl)cc2c1`, the Potency is reported as inconclusive: 8.49 µM [inhibitor, partial curve].
`COc1cccc(CNC(=O)C2CCN(Cc3cc4ccccc4n3Cc3ccc(C)cc3)CC2)c1` was tested, and the Potency was “inactive”.
`CC1=NN(c2ccccc2)C(=O)/C1=C\c1cc(C)n(C)c1C` was tested, and the Potency was active: 7.57 µM.
In the case of `Cc1ccc(C2=C/C(=C\c3cccnc3)C(=O)O2)cc1`, the Potency is reported as inconclusive: 5.36 µM [inhibitor, full curve].
With `O=C(NCc1ccncc1)C(=O)Nc1nccs1` the Potency was “inactive”.
For `CSc1sc(C(=O)O)c2c1C(=O)CCC2`, the Potency was “inactive”.
With `O=C(CCCl)N1CCN(c2nc(-c3ccccc3)cs2)CC1` the Potency was active: 15.1 µM.
In the case of `CN1C[C@@H]2C(c3ccc(C(F)(F)F)cc3)C3(c4ccc(C#N)cc4)CC2(C3)[C@H]1c1ccccc1` (stereo not given in full), the Potency is reported as “inactive”.
In the case of `CCOc1ccc(-c2cc(C(=O)NCCCN3CCN(CC)CC3)c3ccccc3n2)cc1`, the Potency is reported as active: 8.49 µM.
In the case of `O=C(Nc1ccccc1Cl)Nc1ccccc1Cl`, the Potency is reported as inconclusive: 3.01 µM [inhibitor, partial curve, poor fit].
With `COc1ccc(-n2cc(C(=O)Nc3cc(F)ccc3F)c3ccccc3c2=O)cc1` the Potency was inconclusive: 7.57 µM [inhibitor, partial curve, poor fit].
In the case of `COc1ccc(-c2nc(CS(=O)(=O)CC(=O)NCCc3cc(OC)ccc3OC)c(C)o2)cc1`, the Potency is reported as “inactive”.
`COc1ccc(OCc2cccc(C(=O)Nn3cc([N+](=O)[O-])cn3)c2)cc1` was tested, and the Potency was inconclusive: 37.9 µM [inhibitor, single point].
With `CCc1ccc(NC(=O)c2ccc(NC(=O)C3CCCO3)cc2)cc1` (stereo not given) the Potency was inconclusive: 15.1 µM [inhibitor, partial curve].
With `Cc1cccc(-n2ncc3c(N4CCCC4)ncnc32)c1` the Potency was active: 0.953 µM.
For `Cc1ccc(N(C)S(=O)(=O)c2nnc(NC(=O)CC(C)C)s2)cc1`, the Potency was “inactive”.
For `Cc1ccc(C)c(CNC(=O)c2ccc3c(c2)nc2n3CCC(C)C2)c1` (stereo not given), the Potency was inconclusive: 33.8 µM [inhibitor, partial curve, poor fit].
With `COc1ccccc1C1=NC(c2ccc(F)cc2)N=C1C` (stereo not given) the Potency was inconclusive: 30.1 µM [inhibitor, single point].
`Clc1ccc(CONc2ncnc3nonc23)c(Cl)c1` was tested, and the Potency was inconclusive: 30.1 µM [inhibitor, partial curve, poor fit].
With `Cc1ccccc1/C=N/N=C1/NC(=O)CCS1` the Potency was inconclusive: 21.3 µM [inhibitor, single point].
`COc1ccc(CC(=O)N2CCN(c3ccccc3OC)CC2)cc1` was tested, and the Potency was inconclusive: 37.9 µM [inhibitor, partial curve, poor fit].
For `Fc1ccc(-n2nnnc2-c2cnc(-c3cccs3)nc2C(F)(F)F)cc1`, the Potency was “inactive”.
With `O=C(Nc1nc2ccc(S(=O)(=O)N3CCOCC3)cc2s1)c1cccs1` the Potency was active: 19 µM.
With `Cc1ccc(S(=O)(=O)Nc2nc(-c3ccc(F)cc3)cs2)cc1` the Potency was “inactive”.
With `CN(C(=O)c1cnccn1)c1nnc(-c2cnccn2)s1` the Potency was inconclusive: 16.9 µM [inhibitor, partial curve].
With `Cc1nc2ccc(NC(=O)COc3ccccc3C)cc2s1` the Potency was inconclusive: 23.9 µM [inhibitor, single point].
For `O=C(N/N=C/c1ccoc1)c1ccc(Cl)cc1Cl`, the Potency was inconclusive: 23.9 µM [inhibitor, partial curve].
With `O=[N+]([O-])c1ccc2nc(-c3ccccc3)n(OCc3ccc(Cl)cc3)c2c1` the Potency was inconclusive: 21.3 µM [inhibitor, partial curve, poor fit].
`CCN(CC)c1ccc(NC(=O)c2sc3ccccc3c2Cl)cc1` was tested, and the Potency was inconclusive: 4.26 µM [inhibitor, full curve].
With `Cc1cc(NC(=O)/C=C/c2ccccc2)c(C(C)C)cc1O` the Potency was inconclusive: 37.9 µM [inhibitor, partial curve, poor fit].
With `Cc1c([N+](=O)[O-])cc(C(=O)Nc2ccc(Cc3ccncc3)cc2)cc1[N+](=O)[O-]` the Potency was “inactive”.
For `COc1ccc(C2Nc3cc(OC)ccc3-n3cccc32)cc1` (stereo not given), the Potency was inconclusive: 21.3 µM [inhibitor, single point].
With `Cc1nnc(SCC(=O)Nc2sc3c(c2C#N)CCCC3)[nH]c1=O` the Potency was inconclusive: 33.8 µM [inhibitor, single point].
`CCOC(=O)c1cnc(-n2[nH]c(C)c(Cc3ccccc3)c2=O)[nH]c1=O` was tested, and the Potency was inconclusive: 15.1 µM [inhibitor, partial curve, poor fit].
In the case of `COCC(C)N=C1NN=C(c2cc(C)n(Cc3ccccc3Cl)c2C)CS1` (stereo not given), the Potency is reported as active: 7.57 µM.
`CCCN1C(=O)/C(=C/c2ccc3c(c2)OCO3)NC1=S` was tested, and the Potency was inconclusive: 26.9 µM [inhibitor, single point].
For `O=C(COC(=O)C(Cc1ccccc1)NC(=O)c1ccc(Cl)cc1)c1ccc(Cl)cc1` (stereo not given), the Potency was inconclusive: 21.3 µM [inhibitor, partial curve, poor fit].
With `CC(=O)c1ccc(NC(=O)C2CC(=O)N(Cc3ccccc3)C2)cc1` (stereo not given) the Potency was active: 9.53 µM.
With `COc1ccccc1OCCSc1nnnn1-c1ccc(C)cc1` the Potency was active: 16.9 µM.
With `O=Cc1cccn1-c1ccc(O)cc1` the Potency was inconclusive: 37.9 µM [inhibitor, single point].
`COC(=O)c1cccc(NC(=S)NCc2ccco2)c1` was tested, and the Potency was inconclusive: 23.9 µM [inhibitor, partial curve, poor fit].
For `CCCSc1nc(-c2ccc(OC)cc2)cc(-c2ccccc2OC)c1C#N`, the Potency was inconclusive: 23.9 µM [inhibitor, partial curve, poor fit].
`O=C(CCCc1ccccc1)Nc1ccccc1[N+](=O)[O-]` was tested, and the Potency was inconclusive: 26.9 µM [inhibitor, partial curve].
For `Cc1ccc([N+](=O)[O-])cc1NC(=O)CSc1n[nH]c(-c2cccnc2)n1`, the Potency was inconclusive: 37.9 µM [inhibitor, partial curve, poor fit].
`Cn1c(SCC(=O)Nc2ccc(Br)cc2)nc(O)cc1=O` was tested, and the Potency was inconclusive: 23.9 µM [inhibitor, single point].
With `CCOC(=O)c1c(C)n(C)c2cc(-c3ccc(F)cc3)c(O)cc12` the Potency was “inactive”.
